Results as given in PubChem BioAssay AID463173 (ICCB-Longwood Screening Facility, Harvard Medical School, 2010).
The whole screen tested about 52,000 compounds, of which about 4,300 (8.3%) were called active. Rule as the data show it: active = survival mostly below about 52% (no sharp cut-off); inactive = mostly above about 56%. Some of the results follow.

Test system: DeltatarO mutant
Assay: growth inhibition of S. aureus wild type versus tarO mutant, primary screen, teichoic acid synthesis inhibitors, RN4220, OD600 (AID 463173)
Details: OD600, 18 h, hits give low values, screened at 18.75 µg/mL (by protocol)

SMILES	survival
O=c1cc(Nc2cccc(Br)c2)[nH]c(=O)[nH]1	inactive: 68%
CCOc1ccccc1CNC(=O)CCCn1c(=O)c2cccn2c2ccc(F)cc21	active: 33%
Cc1ccc(CNC(=O)c2cc(NS(=O)(=O)c3ccc(C)cc3)ccn2)cc1	inactive: 102%
CCOC(=O)c1cc(S(=O)(=O)N(C)c2ccccc2)[nH]n1	inactive: 118%
CCOc1ccc(S(=O)(=O)Nc2ccc3c(c2)CCCN3S(=O)(=O)c2ccc(C)cc2)cc1	inactive: 88%
O=C(C1CC1)n1cc(C(=S)N2CCOCC2)c2ccccc21	inactive: 55%
COc1ccc(OC)c(NC(=O)CSc2nccn2-c2cc(C)cc(C)c2)c1	inactive: 82%
CC1CC(C)CN(S(=O)(=O)c2ccccc2)C1 (stereo not drawn)	inactive: 71%
CC(=O)Nc1c(C)nn(-c2ccccc2)c1N1CCC(C(=O)Nc2ccc(Cl)cc2C)CC1	inactive: 109%
COc1cc(NC(=O)CN2C(=O)C(c3ccc(C)cc3)=NC23CCCCCC3)cc(OC)c1	inactive: 83%
Cc1ccc(-c2nc3ccccc3[nH]2)cc1NC(=O)COc1ccc(Cl)cc1Cl	active: 18%
Cc1cc(O)c(C(c2ccccc2)N2CCN(c3ccccc3F)CC2)c(=O)n1Cc1ccco1 (stereo not drawn)	inactive: 78%
CCC(=O)N1CCc2cc(Br)cc(S(=O)(=O)CCC(=O)NCc3ccc(C)cc3)c21	inactive: 94%
C=CCNC(=O)CN1CCN(c2ccccc2)CC1	inactive: 87%
COC(=O)c1sc(S(=O)(=O)N2CCN(c3ccc(OC)cc3)CC2)c(C(=O)OC)c1C	inactive: 129%
COc1ccc(CNC(=O)C(=O)Nc2ccccc2OC)cc1	inactive: 67%
CCN(CC)S(=O)(=O)c1ccc(S(=O)(=O)N2CCN(C)CC2)cc1	inactive: 90%
COC(=O)c1ccc(NC(=O)CSc2nccn2Cc2ccc(Cl)cc2)cc1	inactive: 80%
CCOc1ccc(-n2c(=O)c3c(C)c(C)sc3n(Cc3c(F)cccc3Cl)c2=O)cc1	inactive: 96%
COc1ccc(N2CCN(C(=O)CCc3nnc4n(C)c(=O)c5sccc5n34)CC2)cc1	inactive: 58%
COc1ccc(-n2c(=O)c3ccc(C(=O)NCc4ccc(C)cc4)cc3n(Cc3ccc(F)cc3Cl)c2=O)cc1	inactive: 99%
CC1(C)N=C(c2ccc(F)cc2)C(=O)N1CC(=O)Nc1ccccc1Cl	inactive: 95%

SMILES	survival
CCCC(=O)Nc1nc2c(s1)CC(C(C)(C)C)CC2 (stereo not drawn)	active: 14%
Cc1ccc(Cn2c3ccccc3c3cnn(CC(=O)N4CCCCCC4)c(=O)c32)cc1	active: 19%
Cc1ccc(CN2C(=O)CC(c3ccc(Cl)cc3)c3c(C)nn(-c4nc(C)cc(C)n4)c32)cc1 (stereo not drawn)	inactive: 75%
COc1ccc(-n2nc3c(c2NC(=O)C(=O)NCc2ccccc2)CSC3)cc1	inactive: 84%
O=C(Cn1c2ncccc2c(=O)n1-c1ccccc1)Nc1cccc(C(F)(F)F)c1	inactive: 67%
COc1cccc(-c2nc(S(=O)(=O)c3ccc(C)cc3)c(NCc3ccccc3)o2)c1	inactive: 152%
COc1ccc(CN=C(N)N=C(N)N)cc1	inactive: 95%
COc1ccc(N2C(=O)CS(=O)(=O)C23C(=O)N(Cc2ccccc2)c2ccccc23)cc1 (stereo not drawn)	inactive: 76%
Clc1cccc(N2CCN(c3nc4ccccc4c4nc(-c5ccccc5)nn34)CC2)c1	inactive: 85%
CCOc1ccc(-c2nc(CSCC(=O)NCCc3ccccc3)c(C)o2)cc1	inactive: 55%
CCN1CCN(c2cc(C)c3cc(NC(=O)c4cc(OC)c(OC)c(OC)c4)ccc3n2)CC1	inactive: 78%
COc1cccc(CNC(=O)CCCn2c(=O)c3cccn3c3ccc(F)cc32)c1OC	active: 43%
Cc1cc(C)cc(NC(=O)Cn2c(=O)n(CCC(C)C)c(=O)c3cccnc32)c1	inactive: 73%
CCN(CC)C(C(=O)O)c1ccccc1 (stereo not drawn)	inactive: 98%
CCc1ccc2oc(C(=O)N(Cc3cccc(Cl)c3)Cc3ccco3)c(C)c2c1	inactive: 53%
Cn1c(=O)cc(SCC(=O)NCCc2ccc(Cl)cc2)c2cc(Cl)ccc21	inactive: 75%
Cc1cccc(-c2nc3c4ccccc4n(CC(=O)Nc4cccc(F)c4)c(=O)n3n2)c1	inactive: 95%
CC(C)(C)OC(=O)N1CCC(c2c(C(=O)N3CCN(c4ccccc4F)CC3)cnn2C(C)(C)C)CC1	inactive: 68%
CCOC(=O)C1CCN(c2csc3ccc(C)cc3c2=O)CC1	inactive: 85%
COC(=O)c1cc2sc(C)cc2n1Cc1nc(-c2cccc(Br)c2)oc1C	inactive: 88%
Cc1ccc(NC(=O)c2nc[nH]c2C(=O)N2CCCCC2)c(C(=O)c2ccccc2)c1	inactive: 82%
CCc1cccc(NC(=O)Cn2c(=O)n(Cc3ccccc3)c(=O)c3c(C)c(C(=O)N(C)C)sc32)c1	inactive: 71%

SMILES	survival
CCOc1ccccc1N(C)C(=O)c1cc(S(=O)(=O)NCc2ccc(C)cc2)ccc1F	inactive: 105%
CN1CCN(C(=O)c2cnn(-c3ccccc3)c2C2CCN(C(=O)OC(C)(C)C)CC2)CC1	inactive: 107%
CCc1nnc(SC(CC)C(=O)NCCOC)c2cc3occc3n12 (stereo not drawn)	inactive: 107%
CCc1nn2c(=O)cc(COC(=O)c3cccc(NC(=O)COc4ccccc4F)c3)nc2s1	inactive: 102%
COc1ccc(Cl)cc1NC(=O)c1cc(=O)c2cc(C)cc(C)c2o1	inactive: 59%
CCCC(c1nnnn1C(C)(C)C)N(Cc1ccco1)Cc1cc2ccc(C)cc2[nH]c1=O (stereo not drawn)	inactive: 83%
Cc1ccc(C)c(NC(=O)Cn2cc(S(=O)(=O)N3CCCC3)c(S(=O)(=O)N3CCCC3)c2)c1	inactive: 94%
Cc1cccc(NC(=O)CSc2nc(C)cc(C)c2C(=O)Nc2ccc(Cl)cc2)c1	inactive: 44%
CCC(=O)C1=C(c2cccc([N+](=O)[O-])c2)N(C(=O)CC)n2c(nnc2C2CCCCC2)S1	inactive: 91%
CCc1ccc2c(c1)c(=O)c(S(=O)(=O)c1ccccc1)cn2CC(=O)Nc1cc(C)ccc1C	inactive: 72%
Cc1ccc(CCNC(=O)Cn2ncc3c(=O)oc4ccccc4c32)cc1	inactive: 117%
Cc1ccccc1-c1nc(CS(=O)(=O)CC(=O)Nc2c(C)cccc2C)c(C)o1	inactive: 92%
CC(CNC(=O)c1ccc2nc(CCc3ccccc3)oc2c1)c1ccccc1 (stereo not drawn)	inactive: 70%
COc1ccc(NC(=O)c2ncoc2-c2ccco2)cc1Cl	inactive: 86%
CCOC(=O)c1cccc(NC(=O)C2CCN(S(=O)(=O)c3c(C)noc3/C=C/c3ccc(C)cc3)CC2)c1	inactive: 86%
O=C(Cc1ccccc1)Nc1sc2c(c1C(=O)Nc1ccccc1Cl)CCCC2	active: 31%
COc1cc(NC(=O)c2nc(-c3ccc(Cl)cc3)n3c2CCCCC3)cc(OC)c1OC	inactive: 70%
Cc1cccc(C(=O)Nc2ccc3nc(SCC(=O)N4CCc5ccccc54)sc3c2)c1	inactive: 113%
COc1ccc(OC)c(-c2nnc3n(CCc4ccccc4)c(=O)c4ccccc4n23)c1	inactive: 77%
COc1ccc(CNC(=O)Cn2ccc3cc(S(=O)(=O)N4CCCC4)ccc32)c(OC)c1	inactive: 72%
CCn1c(=O)n(-c2ccc3c(c2)OCO3)c2nc(-c3cc(OC)ccc3OC)nc(C(N)=O)c21	inactive: 88%
COc1ccc(CNC(=O)c2cc(C3CC3)nc3c2c(C)nn3-c2cccc(Cl)c2C)cc1	inactive: 98%

SMILES	survival
Cc1cc(/C=C(\C#N)C(=O)Nc2ccccc2)c(C)n1-c1ccc(F)cc1	inactive: 59%
COC(=O)c1ccccc1NC(=O)c1sc2nc(C)cc(C)c2c1NC(=O)c1ccccc1Cl	inactive: 57%
COc1ccc(NC(=O)CN2CCC(N3CCCCC3)CC2)c(OC)c1	inactive: 58%
COc1ccc(NC(=O)c2cc(C(C)=O)n3ccccc23)cc1Cl	inactive: 85%
Cc1ccc(C)c(Nc2nn3c(=O)c4ccc(C(=O)N(C)Cc5ccccc5)cc4nc3s2)c1	inactive: 129%
S=c1n(-c2ccccc2)cnn1CN1CCCCC1	inactive: 76%
COc1ccc(CNC(=O)c2ccc(NC(=O)N3CCSc4ncccc43)cc2)c(OC)c1	inactive: 81%
CCOc1ccc2oc(=O)cc(CN3CCN(C(=O)c4cccc(Cl)c4)CC3)c2c1	inactive: 66%
Cc1cnc(C(=O)Nc2ccc(N3CCN(C(=O)OC(C)(C)C)CC3)cc2)cn1	inactive: 91%
CC(=O)N1CCCn2c1nc1ccccc12	inactive: 92%
CCCCCCCc1nnc(NC(=O)c2cccs2)s1	inactive: 82%
O=C(NCc1ccccc1F)c1cc2ccccn2n1	inactive: 71%
CCc1ccc(N2CC(C(=O)O)CC2=O)cc1 (stereo not drawn)	inactive: 100%
CCN(CC)C(=O)Cn1c(=O)n(CCCCCC(=O)Nc2ccccc2)c(=O)c2sccc21	inactive: 82%
COC(=O)C1CC2(C(=O)O)CC(C(=O)O)(CC(C(=O)OC)C2=O)C1=O (stereo not drawn)	inactive: 73%
CCOC(=O)c1sc2ncn(CC(=O)Nc3cc(C)cc(C)c3)c(=O)c2c1C	inactive: 68%
COC(=O)c1ccccc1NC(=O)Cn1c(=O)cc(-c2ccccc2)c2c(C)nn(C)c21	inactive: 89%
COc1ccc(CNC(=O)c2ccc(NC(=O)N3CCCCc4ccccc43)cc2)c(OC)c1	inactive: 75%
Cc1cccc(-c2nc(C)c(CCNC(=O)C(=O)Nc3c(C)cc(C)cc3C)s2)c1	inactive: 94%
COc1ccc(-c2csc3nc(-c4ccc(F)cc4)oc(=O)c23)cc1OC	active: 48%
Cc1cccc(C)c1NC(=O)CCS(=O)(=O)c1ccc2c(c1)n(C)c(=O)c(=O)n2C	inactive: 84%
Cc1ccc(CN2CCc3nc(N4CCN(c5ccccc5F)CC4)ncc3C2)s1	inactive: 119%
